Results taken from PubChem BioAssay AID686979 (National Center for Advancing Translational Sciences (NCATS), 2013).
Out of some 420,000 compounds screened, about 50,000 (12%) were called active. The inconclusive results got no clear call from the source; some entries with a clear call stand among them for comparison. Calls follow the shape of the dose curve; as a rule, active = well fitted inhibition curve with a large enough effect; inconclusive = small, poorly fitted or top-dose-only effect; inactive = flat fitted curve, though single readings scatter. No potency is given beside an inconclusive call; the fits are too rough.

test: qHTS for Inhibitors of human tyrosyl-DNA phosphodiesterase 1 (TDP1): qHTS in cells in presence of CPT; conditions: chicken DT40 Tdp1-/-;hTDP1 cells + 20 nM CPT, ATP luminescence, 48 h; activity change, negative = growth inhibition: at 46.2 µM (top of the series) unless noted; also: nearly all actives have a fitted effect of over 55% in size
Procedure, shortened: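 Chicken DT40 Tdp1-/- cells stably complemented with human TDP1 were seeded at 400 cells/well in medium containing 20 nM camptothecin, exposed to pin-transferred compounds, and grown at 37 °C for at least 48 hr. Viability was read as ATP luminescence.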
% is scaled to controls: 0 for no effect and ±100 for the full control effect; potency is read from the fitted curve at half-maximal effect; tags tell the direction and shape of the fitted curve.

| SMILES | Potency | activity change, negative = growth inhibition |
| --- | --- | --- |
| O=C1C(c2ccccc2)C(c2ccccc2)NC(c2ccccc2)C1c1ccccc1 (configuration not stated) | inconclusive [inhibitor, single point] | – |
| Cc1ccc(CN(C)C[C@@H]2OCc3cnnn3CCCC(=O)N([C@@H](C)CO)C[C@H]2C)cc1 | inactive | – |
| O=C(Nc1ccccc1C(=O)O)c1cccc(NC(=O)c2ccc(Br)o2)c1 | inactive | – |
| COC(CC(=O)NNC(=S)Nc1ccccc1)OC | inactive | – |
| COc1cc(C2C(C#N)=C(N)Oc3cc(C)oc(=O)c32)cc(OC)c1OC (configuration not stated) | inconclusive [inhibitor, single point] | – |
| O=C(NCCc1ccccc1)c1cc([N+](=O)[O-])ccc1N1CCOCC1 | inconclusive [inhibitor, single point] | – |
| COc1ccc(Cl)cc1N(CC(=O)N/N=C/c1ccc(OC(C)C)cc1)S(=O)(=O)c1ccc(C)c([N+](=O)[O-])c1 | inactive | – |
| CN(C(=O)CSc1nc2scc(-c3ccccc3)c2c(=O)[nH]1)c1ccccc1 | inconclusive [inhibitor, single point] | – |
| Cc1ccc(SCCNC(=O)c2ccc(CN3CCOCC3)cc2)cc1 | – | inconclusive: -31.1% [inhibitor] |
| CC(C)(C)N1C(=O)[C@H]2[C@@H](c3ccc(Br)cc3)N3C(=O)N(c4cccc(F)c4)C(=O)[C@@]3(C)[C@H]2C1=O | inconclusive [inhibitor, single point] | – |
| COc1ccc(-c2cc3nc(-c4ccc(C)cc4)cc(C(F)(F)F)n3n2)cc1 | inactive | – |
| Cc1cc(-c2nc3ncccc3o2)ccc1NC(=O)CC(C)C | inconclusive [inhibitor, single point] | – |
| CCN(CC)S(=O)(=O)c1ccc(C)c(NC(=S)N2CCN(c3ccccn3)CC2)c1 | active: 18.4 µM | – |
| CCCCn1nnnc1C(c1ccccc1)N1CCN(c2cccc(C)c2C)CC1 (configuration not stated) | inconclusive [inhibitor, single point] | – |
| Cc1nc(NC(=O)CSc2nc3cccnc3n2Cc2ccccc2)sc1C | inconclusive [inhibitor, single point] | – |
| CC(Oc1ccccc1)C(=O)N1CCC2(CC1)Oc1ccc(F)cc1C(=O)C21CC(c2cccnc2)=NO1 (configuration not stated) | inconclusive [inhibitor, partial curve] | – |
| CCOc1ccc(OCC)c(NS(=O)(=O)c2cc(Br)cc3c2N(C(C)=O)C(C)C3)c1 (configuration not stated) | inconclusive [inhibitor, single point] | – |
| CCOc1ccc(C2NC(=O)c3ccccc3O2)cc1OC (configuration not stated) | inactive | – |
| CCCCN(CC)CCNC(=O)c1cc2c(=O)oc3ccc(C)cc3c2s1 | inconclusive [inhibitor, single point] | – |
| CCOC(=O)CSc1nnc([C@H](Cc2ccccc2)NC(=O)OC(C)(C)C)o1 | inactive | – |
| CCOc1ccc2nc(NC(=O)CSc3nnnn3C3CCCCC3)sc2c1 | – | inconclusive: -34% [inhibitor] |

| SMILES | Potency | activity change, negative = growth inhibition |
| --- | --- | --- |
| O=C(CN1CCCc2ccccc21)NC(=O)NC1CCCCC1 | inconclusive [inhibitor, single point] | – |
| CC(=O)Nc1ccc(-c2csc(NCCc3ccccc3)n2)cc1 | inconclusive [inhibitor, single point] | – |
| Brc1cccc(OCCSc2ncccn2)c1 | inconclusive [inhibitor, single point] | – |
| Cn1cc(CNC(=O)CC2C(=O)NCCN2CC(C)(C)C)cn1 (configuration not stated) | inactive | – |
| O[C@H]1C[C@H](c2ccccc2)N(Cc2cccs2)C[C@@H]1n1cc(-c2ccc(F)cc2)nn1 | active: 23.1 µM | – |
| O=C(CSc1nnc(COc2cccc3cccnc23)o1)N1CCc2ccccc21 | active: 2.06 µM | – |
| OCCN1CCN(c2ncnc3c2ncn3[C@H]2CN(Cc3ccc(Cl)cc3)C[C@@H](CO)O2)CC1 | inconclusive [inhibitor, partial curve, poor fit] | – |
| Cc1cccc(NC(=O)c2cc3c([nH]c4ccccc43)c(C)n2)c1C | active: 6.51 µM | – |
| Cn1c(N)c(C(=O)COC(=O)c2ccccc2C(F)(F)F)c(=O)n(C)c1=O | inconclusive [inhibitor, partial curve] | – |
| COc1ccccc1C(=O)Nc1ccccc1N1CCCCC1 | inconclusive [inhibitor, single point] | – |
| O=C(CN1C(=O)CC(c2ccco2)Sc2ccccc21)NC1CCCCC1 (configuration not stated) | inconclusive [inhibitor, partial curve, poor fit] | – |
| Cc1ccsc1C(=O)NNC(=O)c1cccc(S(=O)(=O)N2CCCC2)c1 | inconclusive [inhibitor, partial curve] | – |
| COc1ccc(CNC(=O)C(CC(C)C)NC(=O)c2ccccc2C)cc1 (configuration not stated) | inactive | – |
| CC(C)(C)C(=O)N1CCN(c2ccnc3cc(Cl)ccc23)CC1 | inconclusive [inhibitor, single point] | – |
| CCn1c(SCC(=O)Nc2nc3ccccc3s2)nc2c(c1=O)SC(C)C2 (configuration not stated) | active: 0.731 µM | – |
| CCC(CO)Oc1cc(NC(=O)c2cccc(Cl)c2)c2ncn(C(C)C)c2c1 (configuration not stated) | inconclusive [inhibitor, single point] | – |
| Cc1cc(-c2ccnc(-n3ncc(C(=O)NCCc4ccncc4)c3C)n2)c(C)s1 | – | inactive: -1.95% [at 9.04 µM] |
| O=C(Cc1ccc(Br)cc1)Nc1cccc(-c2cn3c(n2)SCC3)c1 | inconclusive [inhibitor, single point] | – |
| N/C(CCS(=O)(=O)c1ccc(Cl)cc1)=N\OC(=O)c1ccc(Cl)cc1 | inconclusive [inhibitor, single point] | – |
| C#CCN(C[C@@H]1[C@@H](OC(=O)Nc2cccs2)[C@@H](OC(=O)Nc2cccs2)Cn2c(=O)n(CCCCCC)c(=O)n21)S(=O)(=O)c1ccc(C)cc1 | inconclusive [inhibitor, partial curve] | – |
| COCCSc1nc2c(c(=O)[nH]c(=O)n2C)n1Cc1cccc(C)c1 | inconclusive [inhibitor, partial curve, poor fit] | – |
